Assay results reported in publication PMC4251979.
Positions count from the first letter of the chain named. These are yes or no findings as the source states them, for the method shown. In cells and extracts the contact can be indirect. Sequences can lack the tags named with a protein.

Amino acid sequences for entries named in this document (tags omitted).
UniProt Q8IY92: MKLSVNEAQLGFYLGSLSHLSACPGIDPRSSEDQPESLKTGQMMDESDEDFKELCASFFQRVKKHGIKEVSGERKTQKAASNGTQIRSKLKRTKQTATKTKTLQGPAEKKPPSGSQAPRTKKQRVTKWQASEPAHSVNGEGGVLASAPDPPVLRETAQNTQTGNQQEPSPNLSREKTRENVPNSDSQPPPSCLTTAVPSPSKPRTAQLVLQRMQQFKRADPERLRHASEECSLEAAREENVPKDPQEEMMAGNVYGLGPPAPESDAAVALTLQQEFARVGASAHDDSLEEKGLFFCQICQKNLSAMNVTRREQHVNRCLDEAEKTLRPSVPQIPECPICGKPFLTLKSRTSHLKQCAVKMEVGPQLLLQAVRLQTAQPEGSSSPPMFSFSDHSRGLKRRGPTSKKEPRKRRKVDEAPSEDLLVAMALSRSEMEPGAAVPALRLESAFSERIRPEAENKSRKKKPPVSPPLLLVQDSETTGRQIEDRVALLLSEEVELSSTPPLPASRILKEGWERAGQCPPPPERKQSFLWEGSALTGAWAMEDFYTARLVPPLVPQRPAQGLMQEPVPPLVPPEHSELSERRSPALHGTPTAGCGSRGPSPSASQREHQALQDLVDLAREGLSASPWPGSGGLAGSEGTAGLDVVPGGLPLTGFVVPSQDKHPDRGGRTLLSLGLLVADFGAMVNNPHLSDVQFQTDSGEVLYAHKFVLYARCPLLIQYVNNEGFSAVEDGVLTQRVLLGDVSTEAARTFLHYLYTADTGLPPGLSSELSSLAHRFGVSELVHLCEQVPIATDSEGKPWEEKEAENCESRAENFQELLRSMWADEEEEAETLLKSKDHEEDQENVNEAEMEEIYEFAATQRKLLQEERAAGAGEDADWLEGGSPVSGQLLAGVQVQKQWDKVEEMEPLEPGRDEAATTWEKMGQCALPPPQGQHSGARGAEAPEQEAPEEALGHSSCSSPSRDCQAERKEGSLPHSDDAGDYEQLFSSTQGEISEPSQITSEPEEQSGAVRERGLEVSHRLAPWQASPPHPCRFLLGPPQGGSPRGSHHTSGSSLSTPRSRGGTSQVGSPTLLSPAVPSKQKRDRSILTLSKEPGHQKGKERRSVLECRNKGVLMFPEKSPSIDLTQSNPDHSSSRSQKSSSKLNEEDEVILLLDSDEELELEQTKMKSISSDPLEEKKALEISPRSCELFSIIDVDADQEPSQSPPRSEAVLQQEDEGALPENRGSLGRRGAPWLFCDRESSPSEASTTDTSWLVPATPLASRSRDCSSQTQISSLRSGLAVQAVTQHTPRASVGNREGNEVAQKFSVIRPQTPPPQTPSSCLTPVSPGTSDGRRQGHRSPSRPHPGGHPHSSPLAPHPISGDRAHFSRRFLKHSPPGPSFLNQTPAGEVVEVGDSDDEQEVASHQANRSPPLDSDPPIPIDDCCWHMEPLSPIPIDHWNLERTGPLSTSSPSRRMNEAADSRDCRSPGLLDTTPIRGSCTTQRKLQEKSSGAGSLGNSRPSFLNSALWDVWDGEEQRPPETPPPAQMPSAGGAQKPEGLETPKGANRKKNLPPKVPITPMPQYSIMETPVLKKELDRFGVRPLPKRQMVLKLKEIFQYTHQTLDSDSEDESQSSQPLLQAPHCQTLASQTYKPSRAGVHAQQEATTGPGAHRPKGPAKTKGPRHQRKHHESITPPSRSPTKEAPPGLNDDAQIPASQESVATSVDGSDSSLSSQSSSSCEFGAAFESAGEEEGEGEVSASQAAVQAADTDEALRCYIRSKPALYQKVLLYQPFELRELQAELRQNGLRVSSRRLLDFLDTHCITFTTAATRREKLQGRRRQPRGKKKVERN

How the values were obtained:
Test in all cases: co-IP; HEK293 cells transiently transfected with FLAG-MUS81 (wild type or mutants); extracts immunoprecipitated with anti-FLAG (FLAG-M2 agarose beads), western blotting
[1] = target: T1, FLAG-MUS81 W24A L25A (human) (UniProt Q96NY9)
T1 sequence: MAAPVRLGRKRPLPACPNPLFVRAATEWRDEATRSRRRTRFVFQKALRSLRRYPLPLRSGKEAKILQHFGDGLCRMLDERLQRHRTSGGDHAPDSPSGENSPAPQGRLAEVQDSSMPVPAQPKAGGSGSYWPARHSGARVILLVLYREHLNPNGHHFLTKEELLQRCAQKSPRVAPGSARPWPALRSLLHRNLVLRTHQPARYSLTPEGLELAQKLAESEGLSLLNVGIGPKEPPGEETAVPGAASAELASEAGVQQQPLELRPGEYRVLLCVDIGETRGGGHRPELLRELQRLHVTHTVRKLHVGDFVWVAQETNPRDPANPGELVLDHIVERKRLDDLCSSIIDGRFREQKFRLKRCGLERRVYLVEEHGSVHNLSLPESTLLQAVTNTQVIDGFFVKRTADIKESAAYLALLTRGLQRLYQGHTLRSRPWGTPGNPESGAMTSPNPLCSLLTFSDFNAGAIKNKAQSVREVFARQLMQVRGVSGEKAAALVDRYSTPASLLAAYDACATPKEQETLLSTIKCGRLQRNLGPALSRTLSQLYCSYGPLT

[2] = target: T2, full-length FLAG-MUS81 L25P (human) (UniProt Q96NY9)
T2 sequence: T1 sequence with A24W, A25P

[3] = target: T3, FLAG-MUS81 L66A Q67A (human) (UniProt Q96NY9)
T3 sequence: T1 sequence with A24W, A25L, L66A, Q67A

Measured: binding

endogenous SLX4 (human cells) (from UniProt Q8IY92 1-1834)
no binding: all assays above
